Data reported in publication PMC4336329 (PLoS ONE, 2015).
Out of some 310,000 compounds screened, about 2,200 (0.71%) showed an effect of 50% or more. The effect is printed as a negative number. This is one part of the list.

These molecules were tested against human ether-à-go-go-related gene (hERG) potassium channel (human, UniProt Q12809) (assay: primary screen, population patch clamp on CHO cells stably expressing hERG).
Sequence of human ether-à-go-go-related gene (hERG) potassium channel (Q12809 whole entry, looked up): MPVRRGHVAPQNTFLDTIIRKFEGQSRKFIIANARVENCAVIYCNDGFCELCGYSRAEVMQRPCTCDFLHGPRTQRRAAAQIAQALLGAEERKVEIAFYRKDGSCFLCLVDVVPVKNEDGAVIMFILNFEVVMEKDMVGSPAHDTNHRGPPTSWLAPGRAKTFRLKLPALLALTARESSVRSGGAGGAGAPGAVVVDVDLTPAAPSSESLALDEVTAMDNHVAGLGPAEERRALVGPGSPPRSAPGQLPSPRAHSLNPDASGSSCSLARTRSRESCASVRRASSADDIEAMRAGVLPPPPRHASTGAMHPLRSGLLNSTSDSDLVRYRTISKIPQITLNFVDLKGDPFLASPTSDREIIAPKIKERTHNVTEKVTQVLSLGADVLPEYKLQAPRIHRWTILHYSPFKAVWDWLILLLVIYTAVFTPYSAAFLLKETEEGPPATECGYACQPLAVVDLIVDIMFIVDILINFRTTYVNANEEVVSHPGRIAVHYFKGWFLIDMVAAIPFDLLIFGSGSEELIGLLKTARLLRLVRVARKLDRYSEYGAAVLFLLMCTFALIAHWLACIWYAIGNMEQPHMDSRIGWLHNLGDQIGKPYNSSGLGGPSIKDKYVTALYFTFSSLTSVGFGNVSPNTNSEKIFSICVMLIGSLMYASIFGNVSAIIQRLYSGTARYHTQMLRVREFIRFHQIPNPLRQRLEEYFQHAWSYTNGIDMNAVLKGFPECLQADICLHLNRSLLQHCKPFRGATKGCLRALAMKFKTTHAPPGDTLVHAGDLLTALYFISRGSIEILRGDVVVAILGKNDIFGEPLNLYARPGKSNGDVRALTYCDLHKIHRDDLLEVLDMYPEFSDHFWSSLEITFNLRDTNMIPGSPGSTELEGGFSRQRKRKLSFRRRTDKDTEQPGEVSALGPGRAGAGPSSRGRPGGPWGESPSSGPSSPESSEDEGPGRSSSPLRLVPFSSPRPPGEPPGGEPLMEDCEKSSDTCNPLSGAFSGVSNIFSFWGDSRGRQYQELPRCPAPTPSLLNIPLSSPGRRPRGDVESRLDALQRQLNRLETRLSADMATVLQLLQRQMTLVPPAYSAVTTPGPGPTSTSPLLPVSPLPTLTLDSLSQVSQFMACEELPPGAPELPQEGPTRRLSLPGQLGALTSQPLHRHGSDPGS

Row | SMILES | hERG current change (%, negative = inhibition) at 1uM [%]
1 | COc1ccc(C(=O)CSc2nnc(CC(=O)Nc3ccccc3OC)n2C)cc1 | -5.03
2 | Cc1cccn2c(=O)c3c(nc12)N1CCCCC1C1(C3)C(=O)N(C)C(=O)N(C)C1=O (centres unmarked) | 12.6
3 | CCN(C(=O)COC(=O)c1cc([N+](=O)[O-])ccc1N1CCOCC1)C1CCCCC1 | 6.79
4 | CC1CN(C(=O)CCN2C(=O)c3ccccc3C2=O)CC(C)O1 (centres unmarked) | 13.9
5 | C1CCC2=NCCCN2CC1 | 7.59
6 | NC(=O)c1ccccc1N1CCCCC1 | 18.3
7 | O=C(Nc1ccccc1)C(Cc1cccs1)c1nn[nH]n1 (centres unmarked) | 7.61
8 | CCc1nnc(NC(=O)c2ccc(NS(=O)(=O)c3ccccc3)cc2)s1 | -10.2
9 | COC(=O)c1sccc1NC(=O)c1ccccc1 | 18.5
10 | O=C(O)c1nn(CC(=O)N2CCN(c3ccccc3)CC2)c(=O)c2ccccc12 | 12.8
11 | O=C(O)CN1C(=O)C(=O)N(Cc2c(F)cccc2Cl)C1=O | 12.3
12 | CSCCC(NS(=O)(=O)c1ccccc1F)C(=O)NNC(=O)c1csc(N2CCOCC2)n1 (centres unmarked) | 10.2
13 | CCOC(=O)C1=CSC2=NS(=O)(=O)CCN12 | 9.59
14 | Cc1cc(C)nc(SCCS(=O)(=O)Cc2ccc(Cl)cc2)n1 | 7.47
15 | CC12CC(NC(=O)N1CCc1ccccc1)c1cc(Cl)ccc1O2 (centres unmarked) | 13.8
16 | CCOC(=O)N1CCC(N(CCOC)C(=O)Nc2ccc(Cl)cc2)CC1 | -10.4
17 | O=C(CSc1nnc(CNc2ccccc2)o1)N1CCN(C(=O)c2ccco2)CC1 | 9.2
18 | CN(C)CCCN(C(=O)c1cccs1)c1nc(-c2ccccc2)cs1 | -50.7
19 | O=C(O)C1CCCN1S(=O)(=O)c1ccc2[nH]c(=O)c(=O)[nH]c2c1 (centres unmarked) | 10.3
20 | Cc1ccc(N(CCC#N)C(=O)COC(=O)C2=COCCO2)cc1 | 10.3
21 | COC(=O)c1cc(C(=O)OCC(=O)N(C)c2ccccc2)cc([N+](=O)[O-])c1 | 4.84
22 | COc1ccc(N2CCN(c3oc(-c4ccco4)nc3C#N)CC2)cc1 | -25.2
23 | CCN(CC)CC(C)CNC(=O)CC(C(=O)N1CCc2ccccc21)n1ccnc1 (centres unmarked) | 9.73

Row | SMILES | hERG current change (%, negative = inhibition) at 1uM [%]
24 | COc1ccc(C(CC(=O)N2CCCCC2)c2c(OC)cc(OC)c3c(-c4ccccc4)cc(=O)oc23)cc1 (centres unmarked) | 6.91
25 | NC(=O)N1c2ccccc2C=Cc2ccccc21 | 2
26 | CCc1ccc(C(C)NC(=O)/C(C#N)=C\c2cn[nH]c2-c2ccccc2)cc1 (centres unmarked) | 6.15
27 | Cc1cc(NC(=O)CSc2nnc(-c3ccc(Cl)s3)o2)no1 | 5.53
28 | Cc1ccc(S(=O)(=O)N2C(=O)CCC2C(=O)N2CCN(C)CC2)cc1 (centres unmarked) | 12
29 | Cc1ccc(-c2nc3ccccn3c2NC(=O)c2ccco2)cc1 | 18.6
30 | Cc1ccc(C)c(Cn2nnc3c(=O)[nH]c(C4CCN(C(=O)c5cccs5)CC4)nc32)c1 | 14.2
31 | COc1ccc(N)c2c1C(=O)c1ccccc1C2=O | 14.2
32 | CC(=O)c1cccc(NC(=O)c2ccc(OCc3c(C)noc3C)cc2)c1 | 10.4
33 | COC(=O)c1cc(OC)c(OC)cc1NC(=O)Cc1cccs1 | 3.6
34 | Nc1ccc(C(=O)N(CCO)CCO)cc1 | 15.5
35 | Cc1cc(NC(=O)CN2C(=O)NC3(CCCCC3C)C2=O)no1 (centres unmarked) | 1.79
36 | Cc1ccc(C)c(NC(=O)CN(C)S(=O)(=O)c2ccc(F)cc2)c1 | 13.5
37 | Cn1cnnc1SCCNS(=O)(=O)c1ccccc1 | 7.79
38 | O=C(Nc1ccc(OC(F)(F)F)cc1)C1CCCN(S(=O)(=O)c2cccnc2)C1 (centres unmarked) | -4.09
39 | Cc1cccc(NC(=O)c2ccc3ccccc3n2)c1C | 16.9
40 | CNS(=O)(=O)c1ccc(Cl)nc1 | -0.39
41 | CC(C)(C)NC(=O)NC(=O)CN1CCN(S(=O)(=O)c2ccccc2)CC1 | 13.8
42 | COc1ccc(Br)c(OC)c1C(=O)NC(=O)Nc1nc(C)cc(C)n1 | 2.31
43 | CCOc1ccc(N2CC(C(=O)Nc3nnc(SCCOC)s3)CC2=O)cc1 (centres unmarked) | -16.9
44 | ClCc1csc(-c2ccccc2Cl)n1 | 4.13
45 | CC(C)c1cccc(C(C)C)c1OC(=O)[C@H]1OC(c2ccc(Br)cc2)=C[C@@H]1c1ccc(Br)cc1 | 12.1
46 | COc1ccc(-c2nc(CSCC(=O)N3CCC(C(N)=O)CC3)c(C)o2)cc1OC | 6.45

Row | SMILES | hERG current change (%, negative = inhibition) at 1uM [%]
47 | CC(=O)Nc1ccc(OCC(O)CNC(C)C)cc1 (centres unmarked) | 16.7
48 | CCc1ccc2oc(=O)cc(CN3CCCCC3C)c2c1.Cl (centres unmarked) | 0.558
49 | COc1ccc(S(=O)(=O)N(C)CC(=O)Nc2ccccc2C(F)(F)F)cc1 | 8.98
50 | COc1cc(S(=O)(=O)NCc2ccc3c(c2)OCO3)c(OC)cc1C | 9.84
51 | COc1ccc(C(=O)NC(=C(Cl)Cl)S(=O)(=O)c2ccc(C)cc2)cc1 | 9.54
52 | COc1cc(NC(=O)NS(=O)(=O)c2ccc(C)cc2)cc(OC)c1 | 5.75
53 | COc1ccc(C2Nc3ccccc3C(=O)N2Cc2ccccc2)cc1 (centres unmarked) | 9.24
54 | O=C(NCCOc1ccccc1F)c1ccc2c(=O)n3c(nc2c1)CCC3 | 8.73
55 | CN(C(=O)CCc1nnc(Cc2ccc(-c3ccccc3)cc2)o1)C1CCOCC1 | -4.53
56 | COc1ccc(CNC(=O)CCc2nnc3ccc(NCCCN4CCCC4=O)nn23)cc1 | 6.79
57 | O=C(NNc1ccccc1)C(CCO)C(=O)NNc1ccccc1 | 4.69
58 | COc1ccc(OC)c(NC(=O)CSc2ccc3nnc(-c4ccccn4)n3n2)c1 | -38.7
59 | CCNC(=O)NC(=O)CSc1ccc(NC(C)=O)cc1 | 1.2
60 | COc1ccc(C(=O)n2c(-c3ccco3)nc3ccccc32)cc1 | -3.54
61 | CC(NC(=O)C(=O)N1CCOCC1)C(c1cccs1)N1CCN(c2ccc(F)cc2)CC1 (centres unmarked) | 13.1
62 | CN1C(=O)C(=Cc2sc(=O)n(-c3ccccc3)c2N(C)C)C(=O)N(C)C1=O | 11.9
63 | CCOc1ccc(S(=O)(=O)N2CCC(C(=O)OCc3ccc(OC)cc3)CC2)cc1 | 10.1
64 | O=C(Nc1ccccc1OC(F)F)c1ccc(F)cc1 | 8.03
65 | Cn1c(-c2ccccc2)c(/C=N/NC(=O)c2ccc(O)cc2)c2ccccc21 | 6.98
66 | Cc1ccc(C2CC(=O)Oc3cc(O)ccc32)cc1 (centres unmarked) | -4.73
67 | O=C(N/N=C/c1ccccc1)c1[nH]ncc1Br | 15.8
68 | O=C(c1cnn2c(C(F)(F)F)cc(-c3ccccc3)nc12)N1CCOCC1 | 10.3
69 | O=C(NCc1ccc(Cl)cc1)c1csc(-c2cccnc2)n1 | 8.83

Row | SMILES | hERG current change (%, negative = inhibition) at 1uM [%]
70 | O=C(O)c1ccc(-c2nc(-c3ccccc3)cs2)cc1 | 14.3
71 | CC(C)(C)N(Cc1ccccc1)C(=O)COC(=O)[C@@H]1CCCN1C(=O)c1cccs1 | 13.3
72 | CC(C)(C)c1ccc(NC(=O)N2CCCN(c3ccc([N+](=O)[O-])cn3)CC2)cc1 | -7.9
73 | Cc1ccc(-n2c(SCC(N)=O)nnc2-c2cnccn2)cc1 | 19
74 | CCc1ccc2nc3sc(C(=O)Nc4nnc(CC)s4)c(N)c3cc2c1 | 17
75 | COc1cc2c(cc1OC)CN(C(=O)/C=C/c1ccccc1[N+](=O)[O-])CC2 | 15.3
76 | O=C(N/N=C\c1ccccc1)c1sccc1-n1cccc1 | 0.439
77 | CSCCC(NS(=O)(=O)c1ccc(C)cc1)C(=O)N1CC=C(c2ccccc2)CC1 (centres unmarked) | 9.55
78 | COc1ccc(/C=N/NC(=O)c2ccccc2O)cc1Cn1nnc2ccccc21 | 2.55
79 | CCOc1ccc(N(C(=O)Cn2nnc3ccccc32)C(C(=O)NC(C)(C)CC)c2cccn2C)cc1 (centres unmarked) | 16.4
80 | O=C(c1cnn2c1NC(c1ccc(Br)cc1)CC2C(F)(F)F)N1CCN(C23CC4CC(CC(C4)C2)C3)CC1 (centres unmarked) | 6.87
81 | CCNS(=O)(=O)c1ccc2c(c1)n(C)c(=O)n2C | 6.51
82 | COC(=O)CSc1ncnc2scc(-c3ccccc3)c12 | -0.407
83 | Cc1ccc(C(=O)N/C(=C/c2ccc(F)cc2)C(=O)NCc2ccncc2)cc1 | -78.4
84 | CCCOc1ccc(CSC2=NCCN2)cc1[N+](=O)[O-] | -53.5
85 | O=C(O)CCC(=O)NC1CCCCC1 | 5.23
86 | O=C(CCC(=O)N1CCN(S(=O)(=O)c2ccc3ccccc3c2)CC1)NCC(F)(F)F | 17.6
87 | N#Cc1ccc(NC(=O)COC(=O)CSc2nnc(-c3ccc(Cl)cc3)o2)cc1 | 6.91
88 | CCOc1ccc(NC(=O)CCN2C(=O)c3cccc([N+](=O)[O-])c3C2=O)cc1 | 11.2
89 | Cc1ccc(NC(=O)NC(=O)c2ccccc2)cc1F | 13.8
